Measured values published in the supplement of paper PMC8728848.
The other results are listed elsewhere or left out.

Columns and labels:
Test in all cases: glycan array binding signal (z-score within array); higher = stronger binding
Settings in all cases: glycan notation: IUPAC condensed, linker removed
Fuc(a1-2)Gal = biological target: Fuc(a1-2)Gal
In short: (§1)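 The Consortium for Functional Glycomics database supplied 3228 glycan arrays, of which those lacking an available protein sequence were dropped. The binding signal, a within-array Z-score, was averaged across arrays of the same protein sequence and across linkers. Negative scores can be read as non-binding.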

Fuc(a1-2)Gal(b1-3)GalNAc = biological target: Fuc(a1-2)Gal(b1-3)GalNAc
In short: as §1

[1] = biological target: Fuc(a1-2)Gal(b1-3)GalNAc(a1-3)[Fuc(a1-2)]Gal(b1-4)Glc
In short: as §1

[2] = biological target: Fuc(a1-2)Gal(b1-3)GalNAc(a1-3)[Fuc(a1-2)]Gal(b1-4)GlcNAc
In short: as §1

[3] = biological target: Fuc(a1-2)Gal(b1-3)GalNAc(b1-3)Gal
In short: as §1

[4] = biological target: Fuc(a1-2)Gal(b1-3)GalNAc(b1-3)Gal(a1-4)Gal(b1-4)Glc
In short: as §1

[5] = biological target: Fuc(a1-2)Gal(b1-3)GalNAc(b1-4)[Neu5Ac(a2-3)]Gal(b1-4)Glc
In short: as §1

Fuc(a1-2)Gal(b1-3)GlcNAc = biological target: Fuc(a1-2)Gal(b1-3)GlcNAc
In short: as §1

[6] = biological target: Fuc(a1-2)Gal(b1-3)GlcNAc(b1-2)Man(a1-3)[Fuc(a1-2)Gal(b1-3)GlcNAc(b1-2)Man(a1-6)]Man(b1-4)GlcNAc(b1-4)GlcNAc
In short: as §1

[7] = biological target: Fuc(a1-2)Gal(b1-3)GlcNAc(b1-2)Man(a1-3)[Fuc(a1-2)Gal(b1-3)GlcNAc(b1-2)Man(a1-6)]Man(b1-4)GlcNAc(b1-4)[Fuc(a1-6)]GlcNAc
In short: as §1

[8] = biological target: Fuc(a1-2)Gal(b1-3)GlcNAc(b1-3)Gal(b1-4)Glc
In short: as §1

[9] = biological target: Fuc(a1-2)Gal(b1-3)GlcNAc(b1-3)GalNAc
In short: as §1

[10] = biological target: Fuc(a1-2)Gal(b1-3)GlcNAc(b1-3)[Fuc(a1-2)Gal(b1-3)GlcNAc(b1-6)]GalNAc
In short: as §1

[11] = biological target: Fuc(a1-2)Gal(b1-3)GlcNAc(b1-3)[Gal(b1-4)GlcNAc(b1-6)]Gal(b1-4)Glc
In short: as §1

[12] = biological target: Fuc(a1-2)Gal(b1-3)GlcNAc(b1-3)[Neu5Ac(a2-6)Gal(b1-4)GlcNAc(b1-6)]Gal(b1-4)Glc
In short: as §1

[13] = biological target: Fuc(a1-2)Gal(b1-3)GlcNAc6S
In short: as §1

[14] = biological target: Fuc(a1-2)Gal(b1-3)[Fuc(a1-4)]GlcNAc
In short: as §1

[15] = biological target: Fuc(a1-2)Gal(b1-3)[Fuc(a1-4)]GlcNAc(b1-2)Man(a1-3)[Fuc(a1-2)Gal(b1-3)[Fuc(a1-4)]GlcNAc(b1-2)Man(a1-3)]Man(b1-4)GlcNAc(b1-4)GlcNAc
In short: as §1

[16] = biological target: Fuc(a1-2)Gal(b1-3)[Fuc(a1-4)]GlcNAc(b1-2)Man(a1-3)[Fuc(a1-2)Gal(b1-3)[Fuc(a1-4)]GlcNAc(b1-2)Man(a1-6)]Man(b1-4)GlcNAc(b1-4)[Fuc(a1-6)]GlcNAc(b1-4)[Fuc(a1-6)]GlcNAc
In short: as §1

[17] = biological target: Fuc(a1-2)Gal(b1-3)[Fuc(a1-4)]GlcNAc(b1-3)[Fuc(a1-3)[Gal(b1-4)]GlcNAc(b1-6)]Gal(b1-4)Glc
In short: as §1

[18] = biological target: Fuc(a1-2)Gal(b1-3)[Fuc(a1-4)]GlcNAc(b1-3)[Gal(b1-4)GlcNAc(b1-6)]Gal(b1-4)Glc
In short: as §1

[19] = biological target: Fuc(a1-2)Gal(b1-4)Fuc(a1-3)]GlcNAc(b1-2)Man(a1-3)[Fuc(a1-2)Gal(b1-4)[Fuc(a1-3)]GlcNAc(b1-2)Man(a1-6)]Man(b1-4)GlcNAc(b1-4)GlcNAc
In short: as §1

Fuc(a1-2)Gal(b1-4)Glc = biological target: Fuc(a1-2)Gal(b1-4)Glc
In short: as §1

Fuc(a1-2)Gal(b1-4)Glc6S = biological target: Fuc(a1-2)Gal(b1-4)Glc6S
In short: as §1

Fuc(a1-2)Gal(b1-4)GlcNAc = biological target: Fuc(a1-2)Gal(b1-4)GlcNAc
In short: as §1

[20] = biological target: Fuc(a1-2)Gal(b1-4)GlcNAc(b1-2)Man
In short: as §1

[21] = biological target: Fuc(a1-2)Gal(b1-4)GlcNAc(b1-2)Man(a1-3)[Fuc(a1-2)Gal(b1-4)GlcNAc(b1-2)Man(a1-6)]Man(b1-4)GlcNAc(b1-4)GlcNAc
In short: as §1

[22] = biological target: Fuc(a1-2)Gal(b1-4)GlcNAc(b1-2)Man(a1-3)[Fuc(a1-2)Gal(b1-4)GlcNAc(b1-2)Man(a1-6)]Man(b1-4)GlcNAc(b1-4)[Fuc(a1-6)]GlcNAc
In short: as §1

[23] = biological target: Fuc(a1-2)Gal(b1-4)GlcNAc(b1-2)[Fuc(a1-2)Gal(b1-4)GlcNAc(b1-4)]Man(a1-3)[Fuc(a1-2)Gal(b1-4)GlcNAc(b1-2)Man(a1-6)]Man(b1-4)GlcNAc(b1-4)GlcNAc
In short: as §1

[24] = biological target: Fuc(a1-2)Gal(b1-4)GlcNAc(b1-3)Gal(b1-4)GlcNAc
In short: as §1

B1: a L Fucosidase (Streptosporangium roseum), D2B1P1_STRRD (protein)
chain: MRRKLLLVPAVGLLVIGSIFATQPVASADTPPVYEPTVESLNSHPVPQWFNDDKFGIFIHWGAYSVPAWGPRGSYAEWYGNYMNAGGSATNAHHKATYGQDFNYDAFLQQWKAEKFDPADWVKLFKDAGAKYFVLTSKHHEGMALWDSKSSGRDSVDLGPGRDLAKELFDAARKDEAKLKAGFYYSLYEWYNPAYTGRPATNPYTGAEIPYTGAPGGGDYVKDYMLPQMRELIDGYDPDIIWCDGQWEKPASYWNTAGVIADYYNKALNSGKEVAVANRCKIQSGNLDSPELDFQTPEYTVKPDIDPVKWESSRGIAHSYGYNQNEPEEDHLTSDQLVDSLVDIVSKNGNLLLDIGPKADGTIPEIQRQRLLDIGAWLKANGEAIYGTTYWNRAEEKGGPDDVRYTAKDATLYATALKWPGEQLTLGADLPVDHSTRITMLGSGARLSWSRDEQGRVVVNTPQEAGKHAYVFKIETPGVRSLLRTSSSLAKEIAPGRTISGELTVTNPGKRHTPATKLSLTVPQGWTATLGAPRVRPLGPGESVKVPISVSAPEGVAPAPYTLGLYQRTGRMGTTTALPLTVNRPNLSLGKPATQKSTGYDAPASRAVDGNTGGDWSAGSTTHTAEPEKQAWWQVDLGASARLDSVDVWNRLDCCADRLKDFWVMASDQPFTTDDLDQARTAPGVTAVHVGEQAGSPSKVKLPEGTRGRYVRIQLASPSNPLSLAEVQVRGSMARPNLSLGKPATQKSTGYDAPASRAVDGNTGGDWSAGSTTHTAEPEKQAWWQVDLGASARLDSVDVWNRLDCCADRLKDFWVMASDQPFTTDDLDQARTAPGVTAVHVGEQAGSPSKVKLPEGTRGRYVRIQLASPSNPLSLAEVQVRLEHHHHHHS
Fuc(a1-2)Gal
  glycan array binding signal (z-score): 4.93
Fuc(a1-2)Gal(b1-3)GalNAc
  glycan array binding signal (z-score): -0.499
[1]
  glycan array binding signal (z-score): 0.337
[2]
  glycan array binding signal (z-score): -0.191
[3]
  glycan array binding signal (z-score): 0.024
[4]
  glycan array binding signal (z-score): 0.066
[5]
  glycan array binding signal (z-score): -0.366
Fuc(a1-2)Gal(b1-3)GlcNAc
  glycan array binding signal (z-score): -0.423
[6]
  glycan array binding signal (z-score): 0.052
[7]
  glycan array binding signal (z-score): 0.217
[8]
  glycan array binding signal (z-score): -0.268
[9]
  glycan array binding signal (z-score): 0.064
[10]
  glycan array binding signal (z-score): -0.371
[11]
  glycan array binding signal (z-score): -0.173
[12]
  glycan array binding signal (z-score): -0.56
[13]
  glycan array binding signal (z-score): -0.381
[14]
  glycan array binding signal (z-score): -0.463
[15]
  glycan array binding signal (z-score): 1.01
[16]
  glycan array binding signal (z-score): -0.039
[17]
  glycan array binding signal (z-score): -0.305
[18]
  glycan array binding signal (z-score): -0.388
[19]
  glycan array binding signal (z-score): 0.398
Fuc(a1-2)Gal(b1-4)Glc
  glycan array binding signal (z-score): 0.656
Fuc(a1-2)Gal(b1-4)Glc6S
  glycan array binding signal (z-score): 2.06
Fuc(a1-2)Gal(b1-4)GlcNAc
  glycan array binding signal (z-score): 1.83
[20]
  glycan array binding signal (z-score): 2.47
[21]
  glycan array binding signal (z-score): 0.014
[22]
  glycan array binding signal (z-score): 0.372
[23]
  glycan array binding signal (z-score): 0.229
[24]
  glycan array binding signal (z-score): 0.709
